Experimental data published in patent US20250108124A1, “ANTIBODY DRUG […] MATES TECHNOLOGY FOR […] AGENTS” (Biohaven Therapeutics Ltd., priority 2021, published 2025).

B1: B-cmp. 1101: "B=enfortumab"; "Conjugations of the appropriate reagent to the antibody (A or B)": ADC of enfortumab with reagent compound 1101 (conjugate, chains of the INN, looked up)
heavy: EVQLVESGGGLVQPGGSLRLSCAASGFTFSSYNMNWVRQAPGKGLEWVSYISSSSSTIYYADSVKGRFTISRDNAKNSLSLQMNSLRDEDTAVYYCARAYYYGMDVWGQGTTVTVSSASTKGPSVFPLAPSSKSTSGGTAALGCLVKDYFPEPVTVSWNSGALTSGVHTFPAVLQSSGLYSLSSVVTVPSSSLGTQTYICNVNHKPSNTKVDKRV[human IgG1 Fc omitted here]
light: DIQMTQSPSSVSASVGDRVTITCRASQGISGWLAWYQQKPGKAPKFLIYAASTLQSGVPSRFSGSGSGTDFTLTISSLQPEDFATYYCQQANSFPPTFGGGTKVEIKRTVAAPSVFIFPPSDEQLKSGTASVVCLLNNFYPREAKVQWKVDNALQSGNSQESVTEQDSKDSTYSLSSTLTLSKADYEKHKVYACEVTHQGLSSPVTKSFNRGEC
modifications: conjugated to reagent compound 1101
B2: B-cmp. 1103: "B=enfortumab"; "Conjugations of the appropriate reagent to the antibody (A or B)": ADC of enfortumab with reagent compound 1103 (conjugate, chains of the INN, looked up)
heavy: B1 heavy
light: B1 light
modifications: conjugated to reagent compound 1103
B3: B-cmp. 1199: "B=enfortumab"; "Conjugations of the appropriate reagent to the antibody (A or B)": ADC of enfortumab with reagent compound 1199 (conjugate, chains of the INN, looked up)
heavy: B1 heavy
light: B1 light
modifications: conjugated to reagent compound 1199
B4: B-cmp. 1100: "B=enfortumab"; "Conjugations of the appropriate reagent to the antibody (A or B)": ADC of enfortumab with reagent compound 1100 (conjugate, chains of the INN, looked up)
heavy: B1 heavy
light: B1 light
modifications: conjugated to reagent compound 1100
B5: B-cmp. 1106: "B=enfortumab"; "Conjugations of the appropriate reagent to the antibody (A or B)": ADC of enfortumab with reagent compound 1106 (conjugate, chains of the INN, looked up)
heavy: B1 heavy
light: B1 light
modifications: conjugated to reagent compound 1106
B6: B-cmp. 1105: "B=enfortumab"; "Conjugations of the appropriate reagent to the antibody (A or B)": ADC of enfortumab with reagent compound 1105 (conjugate, chains of the INN, looked up)
heavy: B1 heavy
light: B1 light
modifications: conjugated to reagent compound 1105
B7: B-cmp. 1102: "B=enfortumab"; "Conjugations of the appropriate reagent to the antibody (A or B)": ADC of enfortumab with reagent compound 1102 (conjugate, chains of the INN, looked up)
heavy: B1 heavy
light: B1 light
modifications: conjugated to reagent compound 1102
B8: B-cmp. 1574: "B=enfortumab"; "Conjugations of the appropriate reagent to the antibody (A or B)": ADC of enfortumab with reagent compound 1574 (conjugate, chains of the INN, looked up)
heavy: B1 heavy
light: B1 light
modifications: conjugated to reagent compound 1574

Experiment: Drug to antibody ratio (DAR) analysis by LC-MS
Type: physicochemical
Details: drug to antibody ratio of final ADC by LC-MS; A = brentuximab, B = enfortumab
Method: (§1) The desired antibodies (A=brentuximab and B=enfortumab) were buffer exchanged for over 8 dilution volumes (DVs) with 50 mM HEPES buffer, pH 7.5. The target antibody concentration after buffer exchange was >14 mg/mL. A 10 mM stock solution in DMSO was then prepared for each conjugation reagent. Conjugations of the appropriate reagent to the antibody (A or B) was performed using 4 equivalents of reagent at a target antibody concentration of 10 mg/mL in 50 mM HEPES buffer (pH 7.5) with 20% (v/v) DMSO at 25° C. from 1-7 days. The conjugation reactions were analyzed for drug to antibody ratio (DAR) by LC-MS every 24 hrs. When the DAR reached >1.9 (for linear reagents) or >3.8 (for branched reagents), buffer exchange by UFDF over 30 DVs to PBS, pH7.4 was performed to a final concentration range of approximately 5-9 mg/mL. The ADCs were then analyzed for quality under various conditions.
The following formula is used for DAR analysis.

First: B1
Second: B2
The DAR of the first is higher: 2.04 for the first, 2.01 for the second.

Going from B3 to B4, the DAR falls from 2.04 to 1.99.

Going from B5 to B6, the DAR falls from 3.85 to 3.62.

Going from B7 to B8, the DAR rises from 2.00 to 3.92.

Experiment: Aggregation of the purified antibody drug conjugates (ADC quality analysis after conjugation)
Type: physicochemical
Details: ADC after conjugation with 4 equivalents of reagent and buffer exchange to PBS pH 7.4; A = brentuximab, B = enfortumab
Method: as §1

Going from B1 to B2, the Agg. % falls from 1.12% to 0.83%.

Compared with B3, B4 is higher in Agg. %: 0.74% for the first, 1.73% for the second.

First: B5
Second: B6
The Agg. % of the first is higher: 1.68% for the first, 0.60% for the second.

Compared with B7, B8 is higher in Agg. %: 0.97% for the first, 1.23% for the second.
